Laboratory results from US10299477B2 (priority 2015, dated 2019).

Test system: Colletotrichum orbiculare
Conditions: in vivo

| SMILES | Test H (control value class) |
| --- | --- |
| Cn1c(-c2c(F)cc(F)cc2F)c(-c2cc(F)cc(F)c2F)cc(Cl)c1=O [Compound 467] | H (key: H shows more than 50% of control values; L shows 50% or less of control values) |
| CCn1c(-c2c(F)cc(OC)cc2F)c(-c2cc(F)ccc2F)ccc1=O [Compound 468] | H (key: H shows more than 50% of control values; L shows 50% or less of control values) |
| CCn1c(-c2c(F)cc(OC)cc2F)c(-c2cc(F)ccc2F)cc(Cl)c1=O [Compound 469] | H (key: H shows more than 50% of control values; L shows 50% or less of control values) |
| CCn1c(-c2c(F)cccc2F)c(-c2cc(Cl)ccc2Cl)cc(C)c1=O [Compound 470] | H (key: H shows more than 50% of control values; L shows 50% or less of control values) |
| Cc1cc(-c2cc(Cl)ccc2Cl)c(-c2c(F)cccc2F)n(C)c1=O [Compound 471] | H (key: H shows more than 50% of control values; L shows 50% or less of control values) |
| CCn1c(-c2c(F)cccc2F)c(-c2cccc(Cl)c2F)ccc1=O [Compound 472] | H (key: H shows more than 50% of control values; L shows 50% or less of control values) |
| CCn1c(-c2c(F)cccc2F)c(-c2cccc(Cl)c2F)cc(Cl)c1=O [Compound 473] | L (key: H shows more than 50% of control values; L shows 50% or less of control values) |
| Cn1c(-c2c(F)cccc2F)c(-c2cccc(Cl)c2F)cc(Cl)c1=O [Compound 475] | H (key: H shows more than 50% of control values; L shows 50% or less of control values) |
| CCn1c(-c2c(F)cc(OC)cc2F)c(-c2cc(F)ccc2Cl)cc(Br)c1=O [Compound 476, 3-bromo-5-(2-chloro-5-fluorophenyl)-6-(2,6-difluoro-4-methoxyphenyl)-1-ethylpyridine-2(1H)-one] | H (key: H shows more than 50% of control values; L shows 50% or less of control values) |
| CCN1C(=O)CCC(c2cc(F)ccc2F)=C1c1c(F)cccc1F [Compound 477] | L (key: H shows more than 50% of control values; L shows 50% or less of control values) |
| CCn1c(-c2c(F)cccc2F)c(-c2cc(F)ccc2F)ccc1=O [Compound 478] | H (key: H shows more than 50% of control values; L shows 50% or less of control values) |
| CCn1c(-c2c(F)cc(OC)cc2F)c(-c2cc(F)ccc2Cl)cc(C)c1=O [Compound 479] | H (key: H shows more than 50% of control values; L shows 50% or less of control values) |
| CCn1c(-c2c(F)cccc2F)c(-c2cc(F)ccc2F)cc(Cl)c1=O [Compound 481] | H (key: H shows more than 50% of control values; L shows 50% or less of control values) |
| CCn1c(-c2c(F)cccc2F)c(-c2cc(F)ccc2F)cc(Br)c1=O [Compound 482] | L (key: H shows more than 50% of control values; L shows 50% or less of control values) |
| Cn1c(-c2c(F)cccc2F)c(-c2cc(F)ccc2F)ccc1=O [Compound 483] | H (key: H shows more than 50% of control values; L shows 50% or less of control values) |
| Cn1c(-c2c(F)cccc2F)c(-c2cc(F)ccc2F)cc(Cl)c1=O [Compound 484] | H (key: H shows more than 50% of control values; L shows 50% or less of control values) |
| CCn1c(-c2c(F)cc(F)cc2F)c(-c2cccc(F)c2Cl)ccc1=O [Compound 486] | H (key: H shows more than 50% of control values; L shows 50% or less of control values) |
| CCn1c(-c2c(F)cc(F)cc2F)c(-c2cccc(F)c2Cl)cc(Br)c1=O [Compound 487] | H (key: H shows more than 50% of control values; L shows 50% or less of control values) |
| CCn1c(-c2c(F)cc(F)cc2F)c(-c2cccc(F)c2Cl)cc(Cl)c1=O [Compound 488] | H (key: H shows more than 50% of control values; L shows 50% or less of control values) |
| CCn1c(-c2c(F)cc(OC)cc2F)c(-c2cccc(F)c2Cl)ccc1=O [Compound 489] | H (key: H shows more than 50% of control values; L shows 50% or less of control values) |
